Out of some 360,000 compounds screened, about 7,500 (2.1%) were called active. Inconclusive results, whose numbers are uncertain, are shown with a selection of clear calls. Calls follow the shape of the dose curve; as a rule, active = well fitted cell-killing curve with a large enough effect; inconclusive = small, poorly fitted or top-dose-only effect, or effect the other way, or another doubt; inactive = no such curve, though single readings can be large or run the other way. Potencies of inconclusive entries are left out as doubtful fits.
Test: qHTS for induction of synthetic lethality in tumor cells producing 2HG: qHTS for the HT-1080-IDH1KD cell line;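 as to activity, negative = toxicity: 0% = DMSO wells and -100% = cell-free medium wells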
Details: HT-1080 IDH1 knockdown viability, ATP luminescence, 48 h; activity, negative = toxicity: at 46.1 µM (top of the series) unless noted
How it was run: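 In this qHTS, HT-1080 cells depleted of IDH1 are exposed for 48 h at 37 °C to compound titrations. Toxicity is scored from CellTiter-Glo luminescence, with DMSO as full viability and medium alone as none.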
For CCOC(=O)C1CCN(CC(=O)Nc2c(C(=O)OC)[nH]c3ccc(Cl)cc23)CC1, the Potency was inconclusive [cytotoxic, partial curve]. For CSc1ccc(/C=C(/NC(=O)c2ccco2)C(=O)NCc2ccco2)cc1, the Potency was inconclusive [cytotoxic, single point]. For COc1ccc(-c2csc(Cc3nnc(N4CCOCC4)n3-c3ccccc3)n2)cc1OC, the Potency was inconclusive [cytotoxic, single point]. For Cc1sc2nc(SCC(=O)C(C)(C)C)n(Cc3ccco3)c(=O)c2c1C, the Potency was active: 6.31 µM. In the case of Cc1cc(Cl)ccc1OCCCC(=O)NNC(=O)c1ccccc1O, the Potency is reported as inconclusive [cytotoxic, single point]. With Cc1cc(C(=O)NCCc2ccc(Cl)cc2)c2ccccc2n1 the Potency was inconclusive [cytotoxic, single point]. For OC(CN1CCN(c2cccc(C(F)(F)F)c2)CC1)c1c[nH]c2ccccc12 (configuration not stated), the Potency was inconclusive [cytotoxic, single point]. For CC1CCCC(C)N1C(=O)COC(=O)C(Cc1ccccc1)NC(=O)c1cccs1 (configuration not stated), the “activity, negative = toxicity” value was inactive: 0.421%. With Cc1c(C(=O)NCc2ccc3c(c2)OCCO3)sc(=O)n1Cc1cccc(C(F)(F)F)c1 the Potency was inconclusive [cytotoxic, single point]. In the case of CC1=NN(c2ccccc2)C(=O)C1C=Nc1ccc(N(C)C)cc1 (configuration not stated), the Potency is reported as inconclusive [cytotoxic, full curve]. In the case of CC(=O)N1CCN(C(=O)COc2ccccc2C(=O)Nc2ccccc2)CC1, the “activity, negative = toxicity” value is reported as inactive: 6.92%. In the case of CCOC(=O)c1c(NC(=O)C(C)NCc2ccco2)sc2c1CCC(C)C2 (configuration not stated), the Potency is reported as inconclusive [cytotoxic, single point]. For NS(=O)(=O)c1ccc(NC(=O)/C=C/c2cn(-c3ccccc3)nc2-c2cccc(Cl)c2)cc1, the Potency was inconclusive [cytotoxic, partial curve]. In the case of S=C(NCc1ccc(Cl)cc1)NC1CCN(Cc2ccccc2)CC1, the Potency is reported as active: 20.6 µM. With CCOC(=O)N1CCN(Cc2nc3ccc([N+](=O)[O-])cc3c(=O)n2-c2cccc(OC)c2)CC1 the activity, negative = toxicity was inconclusive: -3.91% [cytotoxic]. With CCOC(=O)c1c(C)[nH]c(N=Nc2cccc(C)c2)c1C the Potency was inconclusive [cytotoxic, single point]. For Cc1ccnc(NC(c2ccccn2)c2c(C)[nH]c3ccccc23)c1 (configuration not stated), the Potency was inconclusive [cytotoxic, single point]. In the case of Cc1ccc(S(=O)(=O)N2CCOCC2)cc1C(=O)N1CCN(Cc2ccccc2)CC1, the “activity, negative = toxicity” value is reported as inactive: 22.4%. For C[C@H](CO)N1C[C@H](C)[C@H](CN(C)S(=O)(=O)c2cccs2)Oc2ccc(NC(=O)Nc3ccc4c(c3)OCO4)cc2CC1=O, the Potency was inconclusive [cytotoxic, single point]. In the case of O=C(Nc1nnc(-c2cccs2)o1)C1CC1, the “activity, negative = toxicity” value is reported as inactive: 9.13%. In the case of CCOC(=O)c1cnc(-n2nc(C)cc2C)nc1NCc1ccc2c(c1)OCO2, the Potency is reported as inconclusive [cytotoxic, single point]. With CC(C)(C)c1ccc(S(=O)(=O)Nc2ccc(Cc3ccncc3)cc2)cc1 the Potency was inconclusive [cytotoxic, single point]. For COc1cccc(/C=C2/NC(=O)NC2=O)c1OCC(=O)Nc1ccccc1, the Potency was inconclusive [cytotoxic, single point]. With COc1cccc(/C=N\NC(=O)C2=NNC(=O)C2C)c1O (configuration not stated) the Potency was active: 25.9 µM. For CCCCOc1ccc(C(=O)OC2CC(C)N(C)CC2C)cc1 (configuration not stated), the Potency was inconclusive [cytotoxic, single point]. With Cc1cccc(NC(=O)COC(=O)C(NC(=O)c2cccc(S(=O)(=O)N3CCOCC3)c2)C(C)C)c1 (configuration not stated) the “activity, negative = toxicity” value was inactive: 6%. In the case of O=c1c2c3nc4ccccc4nc3n(Cc3ccccc3)c2ncn1Cc1ccco1, the Potency is reported as inconclusive [cytotoxic, single point]. In the case of C[C@H]1CN([C@@H](C)CO)C(=O)CCCn2cc(nn2)CO[C@@H]1CN(C)S(=O)(=O)c1ccc(Oc2ccccc2)nc1, the “activity, negative = toxicity” value is reported as inactive: 1.48%. With Cc1cc(C)n(-c2nc(NCCN(C)C)c3c4c(sc3n2)CCCC4)n1 the Potency was active: 20.6 µM. In the case of COC(=O)c1ccc(CSc2ccccc2NC(=S)Nc2cccc(C(F)(F)F)c2)o1, the Potency is reported as inconclusive [cytotoxic, partial curve]. In the case of CS(=O)(=O)c1cc([N+](=O)[O-])c(Sc2nc3ccccc3[nH]2)c([N+](=O)[O-])c1, the Potency is reported as active: 10 µM. With CC(C)[C@@H](NC(=O)OC(C)(C)C)c1cc(C(=O)c2c(-c3ccccc3)[nH]c3ccccc23)c(N)s1 the Potency was inconclusive [cytotoxic, single point]. For O=C(NCCNc1ccc([N+](=O)[O-])cc1)c1ccccc1Cl, the “activity, negative = toxicity” value was inactive: -6.6%. In the case of Nc1ccc(C(=O)NN2C(=O)[C@H](Cl)C2c2ccc(Cl)cc2)cc1 (some centres not stated), the Potency is reported as active: 18.4 µM. With COC(=O)c1cc2c(-c3ccccc3)cc3ccccn3c-2c1C(=O)OC the Potency was inconclusive [cytotoxic, partial curve]. With CCCOc1ccc(/C=N/Nc2ccc(C(=O)O)cc2)c(OCCC)c1 the Potency was inconclusive [cytotoxic, single point]. With O=C(/C=C/c1cccc([N+](=O)[O-])c1)n1cnc2ccccc21 the Potency was active: 2.59 µM. With CSc1nc2ccc(S(=O)(=O)Nc3c(C)n(C)n(-c4ccccc4)c3=O)cc2s1 the activity, negative = toxicity was inconclusive: -34.8% [cytotoxic]. For OC(c1ccc(F)c(F)c1)c1ncc(-c2cccc(C(F)(F)F)c2)[nH]1 (configuration not stated), the Potency was inconclusive [cytotoxic, single point]. In the case of O=C(/C=C/c1ccccc1)Nc1ncn[nH]1, the Potency is reported as active: 7.94 µM. For COc1ccc(CCN(Cc2cc3cc(C)cc(C)c3nc2Cl)C(=O)C2CC2)cc1, the Potency was inconclusive [cytotoxic, single point]. For COc1cc2sc(-c3ccccc3OC)c(-c3ccc(OCCN4CCOCC4)cc3)c2cc1OC, the Potency was inconclusive [cytotoxic, single point].
Potency is read from the fitted curve at half-maximal effect; tags tell the direction and shape of the fitted curve.
